Where “and” joins values, the source holds several entries; their conditions need not be identical. Equal entries are not always repeated. The campaign covered roughly 48,000 compounds. About 1,200 (2.5%) were called active. About 2% were inconclusive and are not listed.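 How the source made its calls: active means activation of at least 60% and not above a set upper limit (about 1 call in 100 departs from these limits); inconclusive means activation of 40% to 60%, or above that upper limit; inactive means activation under 40%.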 The list shows a part of the results.
biological target: Probable G-protein coupled receptor 32 (Homo sapiens) (UniProt O75388); test: qHTS for Agonists of Human Resolvin D1 Receptor DRV1; conditions: CHO-K1 GPR32 beta-arrestin PathHunter luminescence, 90 min; at 76.9 µM; stronger effect = higher value; zero percent set by DMSO-only wells; further: 0% is about no effect
Sequence of UniProt O75388 (O75388 whole entry, looked up, the tested form may be a part): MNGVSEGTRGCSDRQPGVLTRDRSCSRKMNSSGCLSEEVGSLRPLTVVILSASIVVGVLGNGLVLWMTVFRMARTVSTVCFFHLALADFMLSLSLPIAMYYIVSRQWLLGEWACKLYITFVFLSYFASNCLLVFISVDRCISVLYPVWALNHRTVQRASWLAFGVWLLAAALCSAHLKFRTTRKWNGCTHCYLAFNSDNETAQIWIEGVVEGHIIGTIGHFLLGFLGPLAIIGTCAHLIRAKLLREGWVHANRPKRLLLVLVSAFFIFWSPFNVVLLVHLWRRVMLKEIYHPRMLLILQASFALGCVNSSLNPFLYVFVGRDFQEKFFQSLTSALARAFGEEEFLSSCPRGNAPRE
Outline: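 PathHunter enzyme-fragment complementation, CHO-K1 GPR32 stable line; 2,500 cells/well, overnight attach; cpd 90 min 37 °C 5% CO2; detection reagent 1 h RT; chemiluminescence. DMSO = EC0.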

activation, inactive:
Cc1ccc(NC(=O)C2CCCN(S(=O)(=O)c3cn(C(C)C)cn3)C2)c(C)c1 (centres undefined) 6.23%
COc1ccccc1-c1noc(CCC(=O)Nc2ccc(C)cc2C)n1 -4.99%
CC(=O)c1ccc(Nc2cc(C)nc3nc(Cc4ccc(Cl)cc4)nn23)cc1 10.5%
CC(C)c1nn2c(=O)cc(COC(=O)c3ccccc3NC(=O)C3CCCCC3)nc2s1 -8.45%
O=C(Nc1cc2c(cc1C(=O)c1ccccc1Cl)OCCO2)c1ccccc1 -12.1%
CCc1ccc2oc(C(=O)Nc3cc(C)ccc3C)cc(=O)c2c1 29%
CN(C)c1ccc(CNC(=O)c2ccccc2NC(=O)c2nsc3ccccc23)cc1 -11.9%
CC1Cc2ccccc2N1C(=O)CSc1nnc(-c2ccccc2Cl)o1 (centres undefined) -0.864%
Cc1c(Cl)cccc1NC(=O)c1ncoc1-c1ccco1 -7.08%
Cc1ccc(NC(=O)C(C)n2nnc3sc4c(c3c2=O)CCCC4)cc1Cl (centres undefined) 4.8%
CCc1ccc(NC(=O)CSc2nc3ccccc3c(=O)n2CCNC(C)=O)cc1 34.5%
CC(=O)c1ccc(NC(=O)CCCSc2nc(-c3ccco3)cc(C(F)(F)F)n2)cc1 0.415%
Oc1ccc(NCc2ccccc2OCc2ccccc2F)cc1 -30.7%
CCOc1ccc(OCC)c(NC(=O)C2CCN(c3nnc(-n4cccc4)s3)CC2)c1 0.204%
COc1ccccc1NC(=O)CCN1CCCCC1 -2.82%
Cc1c(Cl)cccc1NC(=O)c1ccc2snnc2c1 -29.8%
CCOC(=O)c1c(C)[nH]c(CCC(=O)NCc2ccccc2Cl)c1C -8.69%
Cc1nc(-c2ccccc2)sc1CCNC(=O)C(=O)Nc1ccc2c(c1)OCO2 23.4%
COc1ccc(NC(=O)CCCN2C(=O)CCn3nc(-c4cn(C)c5ccccc45)cc32)cc1OC 17.2%
O=P(O)(O)OCC(O)CO (centres undefined) 2.57%
Cc1ccc(N(C)C(=O)C2CCN(S(=O)(=O)c3c(C)noc3/C=C/c3c(C)cc(C)cc3C)CC2)cc1 -14.2%
COc1cccc(OCCSc2nc(C)c(Cc3ccccc3)c(=O)[nH]2)c1 -21.4%
Cc1cccc(C(=O)NCC(=O)OCc2cc(=O)n3nc(C4CCCCC4)sc3n2)c1 1.25%
CCOC(=O)c1cccc(NC(=O)CC2C(=O)N(c3ccc(OC)cc3)C(=O)N2C2CCCC2)c1 (centres undefined) -30.7%
Cc1cccc(N2CCN(S(=O)(=O)c3ccc4[nH]c5c(c4c3)CCCCC5)CC2)c1C -2.49%
COc1cccc(NC(=O)C2=C(C)C(=O)OC23CCN(C(C)=O)CC3)c1 -12.3%
COc1ccccc1C(=O)Nc1cc2c(cc1N1CCCC1)n(C)c(=O)c(=O)n2C 0.866%
COC(=O)CN1C(=O)CSc2ccc(S(=O)(=O)Nc3cccc(C)c3C)cc21 22.6%
Cc1ccc(CN2CCSc3ccc(C(=O)NCC(C)c4ccccc4)cc32)cc1 (centres undefined) -23.7%
CCN(CC)C(=O)Cn1nnc2sc(-c3ccccc3)cc2c1=O 28.6%
CCC(=O)N1c2ccc(S(=O)(=O)NCc3ccc(F)cc3)cc2CC1C (centres undefined) 13.2%
COc1cc2c(cc1OC)C(COc1ccc3c(C)cc(=O)oc3c1)N(C(=O)c1cc(Cl)ccc1OC)CC2 (centres undefined) -10.3%
Cc1oc2ccc(O)c(CN(C)Cc3ccccc3)c2c1C(=O)Nc1cccc(Cl)c1C -25.6%
CCCCn1c2ccccc2c2nnc(SCC(=O)Nc3ccc(NC(C)=O)cc3)nc21 -2.89%
Cc1ccccc1NC(=O)c1c2c(nc3ccccc13)C(=O)N(C1CCCCC1)C2 -8.58%
O=C(Nc1onc2c1CCCC2)c1ccc(Cl)cc1 34.3%
CCc1nc2nc(C)cc(Nc3ccc(Br)cc3F)n2n1 1.35%
COc1cc2nc(N3CCN(C(=O)C4CCCO4)CC3)nc(N)c2cc1OC (centres undefined) 10.8% and 2.8%
COc1ccccc1-c1cc(C(F)(F)F)nc(S(=O)(=O)CCCC(=O)Nc2cc(C)ccc2O)n1 26%
COC(=O)c1cc(S(=O)(=O)N2CCN(c3cccc(C)c3)C(C)C2)c[nH]1 (centres undefined) -4.98%
CC(=O)Nc1ccc(S(=O)(=O)Nc2ccc(-c3cn4c(C)csc4n3)cc2)cc1 -2.21%
CCc1c(C)sc(NC(=O)c2cc(-c3ccc(OC)cc3)on2)c1C#N -4.03%
Cc1ccc2c(=O)c(C(=O)c3ccc(F)cc3)cn(CC(=O)NC3CCCCC3)c2n1 4.46%
CCOc1ccc(CNC(=O)c2cc3c(=O)n(Cc4cccs4)ccc3nc2C)cc1 -30.6%
COc1cccc(CNC(=O)c2cc3n(n2)CCCN(Cc2ccc(C)cc2)C3=O)c1OC -7.79%
COc1ccc2c(Sc3ccccc3)c(C(=O)NCc3ccc(OC(C)C)cc3)[nH]c2c1 -10.9%
Cc1cccc(-c2nnc3n(CCc4ccccc4)c(=O)c4ccccc4n23)c1 -5.52%
CCOc1ccc(-n2c(SCC(=O)NCc3ccco3)nc3c([nH]c4ccccc43)c2=O)cc1 -6.73%
Oc1ccc(O)cc1 12.8% and 2.42%
Cc1ccc(Cn2ccnc2SCC(=O)Nc2ccc3c(c2)OCO3)cc1 6.19%
Cc1ccc(C)c(NC(=O)N2CCN(C)c3ncccc32)c1 9.95%
Cc1ccc(-n2c3nc(=O)[nH]c(=O)c-3cc3c(Cl)cccc32)cc1 16%
Cc1ccc(NC(=O)c2sc(-n3nc(C)c(Cc4ccc(Cl)cc4)c3C)nc2C)cc1 15.2%
CCOc1ccc(CNC(=O)c2ccc(-c3nc(CSc4ccc(C)cc4)c(C)o3)cc2)cc1 -4.58%
COc1ccc(Cl)cc1NC(=O)Cn1c(=O)n(Cc2ccco2)c(=O)c2ccc(C(=O)NC3CCCC3)cc21 41.7%
CCOc1ccc(NC(=O)c2c(NC(=O)Cc3ccccc3)sc3c2CCCC3)cc1 -6.51%
CCN(Cc1ccccc1)C(=O)Cn1c(=O)n(-c2ccc(OC)cc2OC)c(=O)c2c(C)c(C)sc21 -3.91%
O=C1c2[nH]nc(-c3ccccc3)c2C(c2ccccc2)N1c1cccc(C(F)(F)F)c1 (centres undefined) 33.6%
CCCc1cc(=O)n2[nH]c(NCc3ccc(CC)cc3)nc2n1 41.6%
O=C1SC(Nc2ccc(Cl)cc2)C(=O)N1Cc1ccccc1 (centres undefined) -78.7%
Cc1ccc(NC(=O)CCCn2c3ccccc3c(=O)c3cc(C)ccc32)c(Br)c1 -4.68%
CC1CCN(S(=O)(=O)c2ccc3c(c2)N(CC(=O)NCCc2ccc(Cl)cc2)C(=O)CO3)CC1 -4.52%
CCOC(=O)c1c(C)[nH]c(C)c1S(=O)(=O)N1CCC(C(=O)N2CCN(c3cc(C)ccc3C)CC2)CC1 -0.0117%
Cc1ccc2oc(C(=O)Nc3ccc(S(=O)(=O)Nc4onc(C)c4C)cc3)cc(=O)c2c1 15%
O=C1CS(=O)(=O)C2(C(=O)N(Cc3ccc(F)cc3)c3ccccc32)N1c1cccc(C(F)(F)F)c1 (centres undefined) -4.57%
Cc1c(Cl)cccc1Nc1nc(N)nc(CSc2nc3ccccc3s2)n1 11.8%
COc1cccc(C(=O)NCC(=O)OCc2cc(=O)n3nc(C)sc3n2)c1 -6.16%
O=C(CSc1ncc(S(=O)(=O)c2ccc(Cl)cc2)c(=O)[nH]1)Nc1ccc2c(c1)OCCO2 -5.22%
CCCCCC(N)=O 13%
CCCCNC(=O)C1=CC(c2ccc3c(c2)OCO3)=NS(=O)(=O)N1C -9.09%
CCOc1ccc(N(C)C(=O)C2CCN(S(=O)(=O)c3ccc4c(c3)CCCN4C(C)=O)CC2)cc1 1.66%
CCC(Sc1nc2ccncc2[nH]1)C(=O)Nc1ccc(F)cc1 (centres undefined) -2.68%
C[C@H]1C[C@H]2[C@@H]3CCC4=CC(=O)C=C[C@]4(C)[C@@]3(Cl)[C@@H](O)C[C@]2(C)[C@@]1(O)C(=O)CO -0.777%
O=S(=O)(c1ccccc1)c1nnn2c1nc(Nc1ccccc1)c1cc(Cl)ccc12 0.0332%
Cc1ccc(Cl)cc1N1CCN(C(=O)Cn2ncc3c([nH]c4ccccc43)c2=O)CC1 3.24%
COc1cccc(-n2c(=O)c3sc4ccccc4c3n(CC(=O)Nc3ccccc3OC)c2=O)c1 -11%
Cc1ccc(-n2nc(CO)c(C(=O)NCCc3ccccc3)n2)cc1 -10.2%
O=C(CSc1nnc(-c2ccc(Cl)cc2)o1)N1CCc2ccccc21 4.26%
Cc1ccc(Cn2cnc3c(oc4ccccc43)c2=O)cc1 -10.7%
Cc1cc(C)cc(NC(=O)C(NS(=O)(=O)c2cccc3nsnc23)c2ccccc2)c1 (centres undefined) -34%
COc1ccc(CCNC(=O)CCc2cn(Cc3ccc(C)cc3)c3ccccc23)cc1OC -27.6%
CCCCOc1nnc(-c2ccc(OCC)cc2)c2ccccc12 3.69%
CCOC(=O)N1CCN(C(=O)c2ccc3c(c2)N(Cc2cc(C)ccc2C)C(=O)c2ccccc2S3=O)CC1 (centres undefined) -12.2%
Cc1nc(N=Nc2ccc(C(=O)O)cc2)c(COP(=O)(O)O)c(C=O)c1O -4.28%

From PubChem BioAssay AID1346428 (National Center for Advancing Translational Sciences (NCATS), 2018)
